42 sequences from publication PMC7819943, “Rice protein-binding microarrays: a tool to detect cis-acting elements near promoter regions in rice” can be followed below.

The other results are listed elsewhere or left out.

In the assay the target is T1, OsWOX13 (Oryza sativa, UniProt Q5QMM3 1-267).
T1 sequence: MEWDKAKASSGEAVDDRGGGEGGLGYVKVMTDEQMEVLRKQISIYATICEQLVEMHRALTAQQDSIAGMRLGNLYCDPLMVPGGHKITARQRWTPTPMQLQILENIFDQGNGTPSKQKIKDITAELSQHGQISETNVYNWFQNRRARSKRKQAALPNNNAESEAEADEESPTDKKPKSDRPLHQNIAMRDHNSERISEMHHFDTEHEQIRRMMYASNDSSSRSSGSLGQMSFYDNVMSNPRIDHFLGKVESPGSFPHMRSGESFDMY
The experiment in a line: protein-binding microarray (RPBM); PBS, 2% BSA, 51.3 ng/ul salmon testes DNA, 50 uM zinc acetate, 200 nM TF, 25 C, 1 h; high values mean tight binding. The following applies: protein: recombinant; tags: N-terminal polyhistidine and DsRed monomer fusion (pET32a); label: CyDye5-dUTP incorporated in the synthesized complementary strand; 3' TTTTT single-stranded linker to array surface; dsDNA, one strand shown. The method, boiled down: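 Polyhistidine-tagged DsRed fusions of transcription factors, joined at the N-terminus, were expressed in E. coli BL21-CodonPlus and isolated on Ni–NTA. They were incubated at 200 nM for 1 h at 25 °C on a custom Agilent array, double-stranded and BSA-blocked, in PBS with 2% BSA, salmon testes DNA and 50 µM zinc acetate. The binding signal is per-feature fluorescence intensity (arbitrary units) read on an Axon 4000B scanner after washing.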
As for “ATAAATTTTCGTTACCGTATTCACGCCGGTTCGTTTTCACCGGAGTCACCTAGTGCAG”, the binding signal was 6510 fluorescence intensity (a.u.).
“ACCTGCTTCCTTAATTAACTCCTTTCCGTCCTTTGTACTTCGGAGTCACCTAGTGCAG”: the binding signal is 9150 fluorescence intensity (a.u.).
As for “GTAAATTTGACAAGATAAGATGTGGTGGCAAGTTTTAATACGGAGTCACCTAGTGCAG”, the binding signal is 3150 fluorescence intensity (a.u.).
With “AAATTATTAATTATTTTATTTGTGACTTACTTTATTATCTCGGAGTCACCTAGTGCAG”, the binding signal is 10400 fluorescence intensity (a.u.).
Consider “TTCTGATTTTCCATAATTCCATTAACTTTTGGAATTGCGCCGGAGTCACCTAGTGCAG”, for which the binding signal is 29700 fluorescence intensity (a.u.).
As to “CGCTAATCACTAGTTCTACATGCTAATGCAACAGCCTTTACGGAGTCACCTAGTGCAG”, the binding signal was 6340 fluorescence intensity (a.u.).
To “TCCGTAGGCGCCCGTGGCGCAGATCAAACTCGCACGCGCACGGAGTCACCTAGTGCAG” belongs 49600 fluorescence intensity (a.u.); to “TTTAATTGGATTCATAAATAGAGTTGGTGTTGTGAAAACACGGAGTCACCTAGTGCAG”, 26800 fluorescence intensity (a.u.).
As to “TTTGCCCTTAATTTGTATACAACTATACACTAGAAAAGAGCGGAGTCACCTAGTGCAG”, the binding signal is 12000 fluorescence intensity (a.u.).
Turning to “ATAATATGATTGCTTCGAATCGAACCGCTCCCCGCGTTGCCGGAGTCACCTAGTGCAG”, the binding signal is 35400 fluorescence intensity (a.u.).
On to “ATTAATTCATTAATTAGTCGGATAAGGCCTATGAACAGTTCGGAGTCACCTAGTGCAG”, for which the binding signal is 17700 fluorescence intensity (a.u.).
On to “CATAAATATCATAATTTGTAGCTTCAATGCATTTCTAACACGGAGTCACCTAGTGCAG”, for which the binding signal is 7190 fluorescence intensity (a.u.).
As for “GATGGCATCCCCGAGTGATTGAAAGAGTTTCCTCTCTCTTCGGAGTCACCTAGTGCAG”, the binding signal is 13000 fluorescence intensity (a.u.).
Turning to “ACAGAATTGGTGGTATATTGATAAACTCTAAAGGATGGGCCGGAGTCACCTAGTGCAG”, the binding signal is 12400 fluorescence intensity (a.u.).
Consider “TGAAATTGGCCAAACAACTGAGGCATCATGTATACAAATTCGGAGTCACCTAGTGCAG”, for which the binding signal is 3220 fluorescence intensity (a.u.).
As to “CCTATCAATTTTATCTAACGGATTAGAAGAAAATTATCAACGGAGTCACCTAGTGCAG”, the binding signal was 11300 fluorescence intensity (a.u.).
To “TGCTTGTAATTTCTATAAAATTAGCAGTATTTTGATGCTACGGAGTCACCTAGTGCAG” belongs 9240 fluorescence intensity (a.u.).
To “AGTACTAAATTAACTTAAAGTTAAGTTTTAAGATATTACACGGAGTCACCTAGTGCAG” belongs 5480 fluorescence intensity (a.u.); to “CCGTAACCGTATTAACCAGTTATTAACCACCACCTCCTCCCGGAGTCACCTAGTGCAG”, 4340 fluorescence intensity (a.u.); to “ACTTTGAATAGATTACTAATCTGCACTGTCAAGAACAACACGGAGTCACCTAGTGCAG”, 14500 fluorescence intensity (a.u.).
As for “AAGCAATGACTGTAAACATATAGATCGTGGTTTTATTCTGCGGAGTCACCTAGTGCAG”, the binding signal was 4670 fluorescence intensity (a.u.).
In the case of “TACCGATTATTGACCGTTGGATCGAGACAGATCGAACGGCCGGAGTCACCTAGTGCAG”, the binding signal is 3210 fluorescence intensity (a.u.).
“ATGATATTGACAATGGGTCTATTCCGTTCAGCTGGGCTGTCGGAGTCACCTAGTGCAG”: the binding signal is 3300 fluorescence intensity (a.u.).
Consider “GTTTGGACACTAATTATAAATGTTAAACATAGTCTATTAACGGAGTCACCTAGTGCAG”, for which the binding signal was 4280 fluorescence intensity (a.u.).
To “TATAATTTGAACCACCCTTATAATTTTCGTAAGGTAGTAGCGGAGTCACCTAGTGCAG” belongs 10000 fluorescence intensity (a.u.); to “AATTAAACACTTAATTAACCCTTTGTTCTTCGGTTTATCGCGGAGTCACCTAGTGCAG”, 12000 fluorescence intensity (a.u.); to “TCCCTCAAAATTTTGCTCCATTTACCGTTAGCTCAACGACCGGAGTCACCTAGTGCAG”, 3590 fluorescence intensity (a.u.).
In the case of “GTTGTGAGATTAGATTAGAGGGAGGGAGAGGGAGATGGGTCGGAGTCACCTAGTGCAG”, the binding signal is 5530 fluorescence intensity (a.u.).
On to “ATAAATTATCTATGTTTAAGAGAGTAATGTTGTTGATAAACGGAGTCACCTAGTGCAG”, for which the binding signal is 9320 fluorescence intensity (a.u.).
Regarding “TTATTGACACTATCATCACTGATTTTACATTTAGAACTATCGGAGTCACCTAGTGCAG”, the binding signal was 5650 fluorescence intensity (a.u.).
“CTTTAAGTGAAAAGATTGAATTGGAGGTAGCCCAAAGTGGCGGAGTCACCTAGTGCAG”: the binding signal was 5540 fluorescence intensity (a.u.).
Consider “GATAGATTTCATGTCATCTTAAATTGCTTGGTACTTGCAACGGAGTCACCTAGTGCAG”, for which the binding signal was 6520 fluorescence intensity (a.u.).
As to “GCCTTGAAATAAATTTACTTTTATTTATACGGTAGTACGGCGGAGTCACCTAGTGCAG”, the binding signal was 4070 fluorescence intensity (a.u.).
As to “CTATAATTACATGTGTCGACAAATATACAATTGTGGGGCTCGGAGTCACCTAGTGCAG”, the binding signal was 18600 fluorescence intensity (a.u.).
“ACGGCTGTCAATATACTGAACTGGACTATTCTGTAACTACCGGAGTCACCTAGTGCAG”: the binding signal was 3340 fluorescence intensity (a.u.).
Turning to “TCTAATATCTATTAATTTAGAATCAGGGAGAAAGTTCTGTCGGAGTCACCTAGTGCAG”, the binding signal was 14200 fluorescence intensity (a.u.).
With “CGAAATTAATTAGCGAAATTAATTAACGCTTTACACAAGGCGGAGTCACCTAGTGCAG”, the binding signal is 64900 fluorescence intensity (a.u.).
For “TTGATTAGTGAGCTATTAATGCATGGGCCTCTATAAATAGCGGAGTCACCTAGTGCAG”, the binding signal was 12600 fluorescence intensity (a.u.).
Regarding “AATATTAATTATAAATATTAAACGTAGACTATTAATAAAACGGAGTCACCTAGTGCAG”, the binding signal was 4270 fluorescence intensity (a.u.).
Turning to “CTCATCAATCTCCTCCGTCGCGGTCGCAGCTGCGGGAGTGCGGAGTCACCTAGTGCAG”, the binding signal is 3520 fluorescence intensity (a.u.).
Turning to “CATATAAATTGACAACTTCTACTTAAACCTGACATGTGGGCGGAGTCACCTAGTGCAG”, the binding signal was 54500 fluorescence intensity (a.u.).
For “GAATAGTAAATTGACGTGGAAAACGAGGGTTTGCGTCTCTCGGAGTCACCTAGTGCAG”, the binding signal was 19900 fluorescence intensity (a.u.).
